The list shows a part of the results.
Experiments:
Assay in all cases: glycan array binding signal (z-score within array); higher = stronger binding
Settings in all cases: glycan notation: IUPAC condensed, linker removed
[1] = biological target: Neu5Ac(a2-6)Gal(b1-4)GlcNAc(b1-3)Gal(b1-4)GlcNAc(b1-3)Gal(b1-4)GlcNAc
Summary of the method: (§1)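 Glycan array data came from 3228 arrays in the Consortium for Functional Glycomics database, and only arrays with an available protein sequence were kept. Glycan names were put into IUPAC-condensed notation, and columns mapping to the same glycan were averaged. The binding signal is a within-array Z-score, averaged across arrays of one protein sequence run at different concentrations or buffers and across linkers. A negative Z-score can be read as non-binding.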

[2] = biological target: Neu5Ac(a2-6)Gal(b1-4)GlcNAc(b1-3)Gal(b1-4)GlcNAc(b1-3)Gal(b1-4)GlcNAc(b1-2)Man(a1-3)[Neu5Ac(a2-6)Gal(b1-4)GlcNAc(b1-3)Gal(b1-4)GlcNAc(b1-3)Gal(b1-4)GlcNAc(b1-2)Man(a1-6)]GalNAc
Summary of the method: as §1

[3] = biological target: Neu5Ac(a2-6)Gal(b1-4)GlcNAc(b1-3)Gal(b1-4)GlcNAc(b1-3)GalNAc
Summary of the method: as §1

[4] = biological target: Neu5Ac(a2-6)Gal(b1-4)GlcNAc(b1-3)Gal(b1-4)GlcNAc(b1-3)[Neu5Ac(a2-6)Gal(b1-4)GlcNAc(b1-3)Gal(b1-4)GlcNAc(b1-6)]GalNAc
Summary of the method: as §1

[5] = biological target: Neu5Ac(a2-6)Gal(b1-4)GlcNAc(b1-3)Gal(b1-4)GlcNAc(b1-6)[Gal(b1-3)]GalNAc
Summary of the method: as §1

[6] = biological target: Neu5Ac(a2-6)Gal(b1-4)GlcNAc(b1-3)Gal(b1-4)[Fuc(a1-3)]GlcNAc(b1-3)Gal(b1-4)[Fuc(a1-3)]GlcNAc
Summary of the method: as §1

[7] = biological target: Neu5Ac(a2-6)Gal(b1-4)GlcNAc(b1-3)GalNAc
Summary of the method: as §1

[8] = biological target: Neu5Ac(a2-6)Gal(b1-4)GlcNAc(b1-3)[Neu5Ac(a2-6)Gal(b1-4)GlcNAc(b1-6)]GalNAc
Summary of the method: as §1

[9] = biological target: Neu5Ac(a2-6)Gal(b1-4)GlcNAc(b1-6)GalNAc
Summary of the method: as §1

[10] = biological target: Neu5Ac(a2-6)Gal(b1-4)GlcNAc(b1-6)[Gal(b1-3)GlcNAc(b1-3)]Gal(b1-4)Glc
Summary of the method: as §1

[11] = biological target: Neu5Ac(a2-6)Gal(b1-4)GlcNAc(b1-6)[Gal(b1-3)]GalNAc
Summary of the method: as §1

[12] = biological target: Neu5Ac(a2-6)Gal(b1-4)GlcNAc6S
Summary of the method: as §1

Neu5Ac(a2-6)GalNAc = biological target: Neu5Ac(a2-6)GalNAc
Summary of the method: as §1

[13] = biological target: Neu5Ac(a2-6)GalNAc(b1-4)GlcNAc
Summary of the method: as §1

[14] = biological target: Neu5Ac(a2-6)GalNAc(b1-4)GlcNAc6S
Summary of the method: as §1

[15] = biological target: Neu5Ac(a2-6)GlcNAc(b1-4)GlcNAc
Summary of the method: as §1

[16] = biological target: Neu5Ac(a2-6)GlcNAc(b1-4)GlcNAc(b1-4)GlcNAc
Summary of the method: as §1

Neu5Ac(a2-8)Neu5Ac = biological target: Neu5Ac(a2-8)Neu5Ac
Summary of the method: as §1

[17] = biological target: Neu5Ac(a2-8)Neu5Ac(a2-3)Gal(b1-3)GalNAc(b1-4)[Neu5Ac(a2-3)]Gal(b1-4)Glc
Summary of the method: as §1

[18] = biological target: Neu5Ac(a2-8)Neu5Ac(a2-3)Gal(b1-3)GalNAc(b1-4)[Neu5Ac(a2-8)Neu5Ac(a2-3)]Gal(b1-4)Glc
Summary of the method: as §1

[19] = biological target: Neu5Ac(a2-8)Neu5Ac(a2-3)Gal(b1-4)Glc
Summary of the method: as §1

[20] = biological target: Neu5Ac(a2-8)Neu5Ac(a2-3)Gal(b1-4)GlcNAc
Summary of the method: as §1

[21] = biological target: Neu5Ac(a2-8)Neu5Ac(a2-3)[Gal(b1-3)GalNAc(b1-4)]Gal(b1-4)Glc
Summary of the method: as §1

[22] = biological target: Neu5Ac(a2-8)Neu5Ac(a2-3)[GalNAc(b1-4)]Gal(b1-4)Glc
Summary of the method: as §1

[23] = biological target: Neu5Ac(a2-8)Neu5Ac(a2-8)Neu5Ac
Summary of the method: as §1

[24] = biological target: Neu5Ac(a2-8)Neu5Ac(a2-8)Neu5Ac(a2-3)Gal(b1-4)Glc
Summary of the method: as §1

[25] = biological target: Neu5Ac(a2-8)Neu5Ac(a2-8)Neu5Ac(a2-3)[Gal(b1-3)GalNAc(b1-4)]Gal(b1-4)Glc
Summary of the method: as §1

[26] = biological target: Neu5Ac(a2-8)Neu5Ac(a2-8)Neu5Ac(a2-3)[GalNAc(b1-4)]Gal(b1-4)Glc
Summary of the method: as §1

[27] = biological target: Neu5Ac(a2-8)Neu5Ac(a2-8)Neu5Ac(a2-8)Neu5Ac(a2-3)[GalNAc(b1-4)]Gal(b1-4)Glc
Summary of the method: as §1

[28] = biological target: Neu5Ac(a2-8)Neu5Gc(a2-3)Gal(b1-4)GlcNAc
Summary of the method: as §1

[29] = biological target: Neu5Ac(b2-6)Gal(b1-4)GlcNAc
Summary of the method: as §1

Neu5Ac(b2-6)GalNAc = biological target: Neu5Ac(b2-6)GalNAc
Summary of the method: as §1

[30] = biological target: Neu5Ac9Ac(a2-3)Gal(b1-3)GlcNAc
Summary of the method: as §1

[31] = biological target: Neu5Ac9Ac(a2-3)Gal(b1-4)GlcNAc
Summary of the method: as §1

[32] = biological target: Neu5Ac9Ac(a2-6)Gal(b1-4)GlcNAc
Summary of the method: as §1

[33] = biological target: Neu5Gc(a2-3)Gal(b1-3)GlcNAc
Summary of the method: as §1

[34] = biological target: Neu5Gc(a2-3)Gal(b1-3)[Fuc(a1-4)]GlcNAc
Summary of the method: as §1

Neu5Gc(a2-3)Gal(b1-4)Glc = biological target: Neu5Gc(a2-3)Gal(b1-4)Glc
Summary of the method: as §1

[35] = biological target: Neu5Gc(a2-3)Gal(b1-4)GlcNAc
Summary of the method: as §1

[36] = biological target: Neu5Gc(a2-3)Gal(b1-4)GlcNAc(b1-3)Gal(b1-4)GlcNAc(b1-2)Man(a1-3)[Neu5Gc(a2-3)Gal(b1-4)GlcNAc(b1-3)Gal(b1-4)GlcNAc(b1-2)Man(a1-6)]Man(b1-4)GlcNAc(b1-4)GlcNAc
Summary of the method: as §1

[37] = biological target: Neu5Gc(a2-3)Gal(b1-4)[Fuc(a1-3)]GlcNAc
Summary of the method: as §1

[38] = biological target: Neu5Gc(a2-6)Gal(b1-4)GlcNAc
Summary of the method: as §1

Neu5Gc(a2-6)GalNAc = biological target: Neu5Gc(a2-6)GalNAc
Summary of the method: as §1

[39] = biological target: Neu5Gc(a2-8)Neu5Ac(a2-3)Gal(b1-4)GlcNAc
Summary of the method: as §1

[40] = biological target: Neu5Gc(a2-8)Neu5Gc(a2-3)Gal(b1-4)GlcNAc
Summary of the method: as §1

B1: Epa23 (Candida glabrata) (protein)
chain: MGSSHHHHHHSSGLVPRGSHMIPNPFEGTINNFPSGCSPNHGLYNRGLTMELYNYSYIHPQSIQSYFNTSTLKKMEKGQCWDPSYLDVNYPRTGYKTHNRFAKVNGIDGILDFEFNPTRSCVPSKGQLPQNYNYPLQFTLSNFTMLLYGYFKPKVTAKHTFTIFADDLLFLNFGAGNAFDCCQQQDTIDDFGNYQAYALWGSDTQQNTLTVNLDANIYYPIRMFYNNRDFKGALNMYFTTDESNTKINDFSGYLFNIPDSSEGCPAHISYETECGNVSG
Question: For B1, which “glycan array binding signal (z-score)” value [1] is on record?
Answer: The value was -0.353.

Question: And the “glycan array binding signal (z-score)” value [2]?
Answer: Its value is 0.05.

Question: What about the “glycan array binding signal (z-score)” value [3] of the same binder?
Answer: Its value is -0.238.

Question: What about the “glycan array binding signal (z-score)” value [4] of the same binder?
Answer: Its value is -0.158.

Question: What about the “glycan array binding signal (z-score)” value [5] of the same binder?
Answer: The value was 0.023.

Question: And the “glycan array binding signal (z-score)” value [6]?
Answer: Its value is -0.125.

Question: What about the “glycan array binding signal (z-score)” value [7] of the same binder?
Answer: The value was -0.288.

Question: What about the “glycan array binding signal (z-score)” value [8] of the same binder?
Answer: The value was -0.137.

Question: And the “glycan array binding signal (z-score)” value [9]?
Answer: Its value is -0.254.

Question: What about the “glycan array binding signal (z-score)” value [10] of the same binder?
Answer: Its value is -0.13.

Question: What about the “glycan array binding signal (z-score)” value [11] of the same binder?
Answer: The value was -0.052.

Question: What about the “glycan array binding signal (z-score)” value [12] of the same binder?
Answer: Its value is -0.225.

Question: And the “glycan array binding signal (z-score)” value (Neu5Ac(a2-6)GalNAc)?
Answer: Its value is -0.069.

Question: And the “glycan array binding signal (z-score)” value [13]?
Answer: The value was -0.232.

Question: What about the “glycan array binding signal (z-score)” value [14] of the same binder?
Answer: The value was -0.174.

Question: And the “glycan array binding signal (z-score)” value [15]?
Answer: The value was -0.092.

Question: What about the “glycan array binding signal (z-score)” value [16] of the same binder?
Answer: The value was -0.232.

Question: What about the “glycan array binding signal (z-score)” value (Neu5Ac(a2-8)Neu5Ac) of the same binder?
Answer: Its value is -0.353.

Question: And the “glycan array binding signal (z-score)” value [17]?
Answer: Its value is -0.233.

Question: What about the “glycan array binding signal (z-score)” value [18] of the same binder?
Answer: Its value is 0.073.

Question: And the “glycan array binding signal (z-score)” value [19]?
Answer: Its value is -0.193.

Question: What about the “glycan array binding signal (z-score)” value [20] of the same binder?
Answer: Its value is -0.277.

Question: What about the “glycan array binding signal (z-score)” value [21] of the same binder?
Answer: The value was -0.093.

Question: And the “glycan array binding signal (z-score)” value [22]?
Answer: The value was -0.297.

Question: What about the “glycan array binding signal (z-score)” value [23] of the same binder?
Answer: The value was -0.188.

Question: And the “glycan array binding signal (z-score)” value [24]?
Answer: The value was -0.287.

Question: What about the “glycan array binding signal (z-score)” value [25] of the same binder?
Answer: The value was -0.281.

Question: And the “glycan array binding signal (z-score)” value [26]?
Answer: The value was -0.215.

Question: What about the “glycan array binding signal (z-score)” value [27] of the same binder?
Answer: Its value is -0.195.

Question: And the “glycan array binding signal (z-score)” value [28]?
Answer: Its value is -0.234.

Question: What about the “glycan array binding signal (z-score)” value [29] of the same binder?
Answer: The value was -0.22.

Question: What about the “glycan array binding signal (z-score)” value (Neu5Ac(b2-6)GalNAc) of the same binder?
Answer: Its value is -0.205.

Question: What about the “glycan array binding signal (z-score)” value [30] of the same binder?
Answer: The value was -0.244.

Question: And the “glycan array binding signal (z-score)” value [31]?
Answer: Its value is -0.225.

Question: And the “glycan array binding signal (z-score)” value [32]?
Answer: The value was -0.239.

Question: What about the “glycan array binding signal (z-score)” value [33] of the same binder?
Answer: Its value is -0.228.

Question: What about the “glycan array binding signal (z-score)” value [34] of the same binder?
Answer: The value was -0.199.

Question: And the “glycan array binding signal (z-score)” value (Neu5Gc(a2-3)Gal(b1-4)Glc)?
Answer: Its value is -0.215.

Question: And the “glycan array binding signal (z-score)” value [35]?
Answer: The value was -0.274.

Question: And the “glycan array binding signal (z-score)” value [36]?
Answer: Its value is -0.137.

Question: And the “glycan array binding signal (z-score)” value [37]?
Answer: The value was -0.228.

Question: And the “glycan array binding signal (z-score)” value [38]?
Answer: Its value is -0.188.

Question: What about the “glycan array binding signal (z-score)” value (Neu5Gc(a2-6)GalNAc) of the same binder?
Answer: The value was -0.101.

Question: And the “glycan array binding signal (z-score)” value [39]?
Answer: Its value is -0.22.

Question: And the “glycan array binding signal (z-score)” value [40]?
Answer: The value was -0.215.

— the supplement of paper PMC8728848
